Values marked as one replicate rest on one cluster of the flow cell; about a third of the high ones do not repeat.
Each sequence was assayed on ATP (assay: switch fluorescence ratio, 500 uM ATP over buffer (Cy3 cluster intensity, sum of 5 cycles each) (fold (ratio)); higher = stronger signal-on switching upon ATP binding; sequences stand for … in TCGTCGGCAGCGTCAGATGTGTATAAGAGACAGTTTTTTTTTTTTTTTTTTTTTTTTT…TC). Settings: aptamer strand: ATP DNA aptamer (quencher-CACCTGGGGGAGTATTGCGGAGGAAGG + anchor), 100 nM annealed; ATP concentration: 500 uM; one replicate.
In short: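 Switching-strand clusters labelled with Cy3 on a modified Illumina MiSeq flow-cell were annealed to 100 nM quencher-labelled ATP aptamer, imaged in selection buffer, and re-imaged after 15 min with 500 uM ATP at 22 °C. This was done over five cycles with NaOH stripping and re-annealing in between. The fluorescence ratio is summed target-cycle over summed buffer-cycle Cy3 intensity per cluster, averaged per switch-domain sequence, excluding clusters outside 100-1000 RFU.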
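Also: ATP exposure 15 min at 22 °C before imaging.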

| Sequence | switch fluorescence ratio |
| --- | --- |
| AGTTGTCGGC | 0.975 |
| AGTTGTTGAG | 0.985 |
| AGTTTAAGGG | 1.01 |
| AGTTTAATGG | 0.986 |
| AGTTTATGAT | 0.997 |
| AGTTTCCGC | 1.13 |
| AGTTTCGATA | 0.995 |
| AGTTTCGGTT | 1.01 |
| AGTTTCTCAG | 1.04 |
| AGTTTGACTT | 1.01 |
| AGTTTGGTTT | 0.954 |
| AGTTTGTGCG | 1.11 |
| AGTTTTCCCG | 0.969 |
| AGTTTTGTCT | 0.957 |
| AGTTTTTACG | 1.05 |
| ATAAAACGGT | 1.02 |
| ATAAAAGGTC | 0.977 |
| ATAAACGAA | 0.963 |
| ATAAAGAGTT | 1.03 |
| ATAAAGTACC | 1.37 |
| ATAAAGTTCT | 0.967 |
| ATAAATCCGT | 0.986 |
| ATAAATCTGA | 1.03 |
| ATAACAGTTT | 0.991 |
| ATAACATTCT | 1.1 |

| Sequence | switch fluorescence ratio |
| --- | --- |
| ATAACCTTC | 2.72 |
| ATAACGACGG | 1.03 |
| ATAACGAGTA | 0.99 |
| ATAACGCATA | 1.63 |
| ATAACGGGGT | 1.03 |
| ATAACTTTCT | 1.08 |
| ATAAGAGAGC | 1.07 |
| ATAAGCGTAG | 0.97 |
| ATAAGCTGCC | 1.54 |
| ATAAGGAATT | 1.02 |
| ATAAGGCATC | 0.966 |
| ATAAGGCTGT | 1.04 |
| ATAAGTACTA | 1.26 |
| ATAAGTCGG | 0.986 |
| ATAAGTGCAC | 0.951 |
| ATAAGTGGAA | 1 |
| ATAATATTGA | 0.998 |
| ATAATCATTC | 1.01 |
| ATAATCCGGT | 0.972 |
| ATAATGATAA | 1.03 |
| ATAATGATTA | 1 |
| ATAATGCTA | 1.01 |
| ATAATGGACG | 1.1 |
| ATAATTAAAA | 0.987 |
| ATAATTTTA | 0.972 |

| Sequence | switch fluorescence ratio |
| --- | --- |
| ATAATTTTGC | 0.995 |
| ATACAAAGGC | 1.03 |
| ATACAAGAAG | 1.03 |
| ATACACGTTT | 0.97 |
| ATACAGCTGC | 1.03 |
| ATACAGCTTT | 1 |
| ATACAGTCT | 1 |
| ATACAGTTTT | 1 |
| ATACATAATG | 1.06 |
| ATACATATGT | 1.01 |
| ATACCAAATG | 1.02 |
| ATACCAGATA | 0.942 |
| ATACCATTGT | 0.988 |
| ATACCCCCTT | 1.52 |
| ATACCGTAGG | 1.02 |
| ATACCGTGTA | 0.962 |
| ATACGAAAGA | 1.01 |
| ATACGACACT | 1.91 |
| ATACGAGTCC | 1.14 |
| ATACGATGGA | 0.979 |
| ATACGCCCTC | 1.31 |
| ATACGCGTGT | 1.03 |
| ATACGCTCGC | 1.17 |
| ATACGGGATG | 1.05 |
| ATACGTATGT | 1.01 |

| Sequence | switch fluorescence ratio |
| --- | --- |
| ATACGTTAAT | 1.22 |
| ATACTAGTGT | 0.985 |
| ATACTATATA | 1.11 |
| ATACTCTACA | 1.33 |
| ATACTGGCCG | 1.09 |
| ATACTGTGCA | 0.996 |
| ATACTTAGTT | 1.05 |
| ATAGAAATAA | 0.986 |
| ATAGAACTA | 0.97 |
| ATAGAAGGAT | 0.977 |
| ATAGACAGG | 0.995 |
| ATAGACTCGG | 0.957 |
| ATAGAGGT | 0.983 |
| ATAGAGTCGA | 1 |
| ATAGATATAA | 1.01 |
| ATAGCACCCA | 1.12 |
| ATAGCGTGCA | 1.02 |
| ATAGCTCGAG | 0.98 |
| ATAGCTCGTA | 1.01 |
| ATAGCTTTTG | 1.02 |
| ATAGGAGCC | 1.02 |
| ATAGGATAAG | 0.989 |
| ATAGGCATTG | 0.982 |
| ATAGGGAGAT | 0.996 |
| ATAGGGCGCT | 1.03 |
